Measured values from publication PMC4336329 (PLoS ONE, 2015).
Out of some 310,000 compounds screened, about 2,200 (0.71%) showed an effect of 50% or more. The effect is printed as a negative number. The list shows a part of the results.

The compounds below were run against human ether-à-go-go-related gene (hERG) potassium channel (human, UniProt Q12809) (assay: primary screen, population patch clamp on CHO cells stably expressing hERG).
Sequence of human ether-à-go-go-related gene (hERG) potassium channel (Q12809 whole entry, looked up): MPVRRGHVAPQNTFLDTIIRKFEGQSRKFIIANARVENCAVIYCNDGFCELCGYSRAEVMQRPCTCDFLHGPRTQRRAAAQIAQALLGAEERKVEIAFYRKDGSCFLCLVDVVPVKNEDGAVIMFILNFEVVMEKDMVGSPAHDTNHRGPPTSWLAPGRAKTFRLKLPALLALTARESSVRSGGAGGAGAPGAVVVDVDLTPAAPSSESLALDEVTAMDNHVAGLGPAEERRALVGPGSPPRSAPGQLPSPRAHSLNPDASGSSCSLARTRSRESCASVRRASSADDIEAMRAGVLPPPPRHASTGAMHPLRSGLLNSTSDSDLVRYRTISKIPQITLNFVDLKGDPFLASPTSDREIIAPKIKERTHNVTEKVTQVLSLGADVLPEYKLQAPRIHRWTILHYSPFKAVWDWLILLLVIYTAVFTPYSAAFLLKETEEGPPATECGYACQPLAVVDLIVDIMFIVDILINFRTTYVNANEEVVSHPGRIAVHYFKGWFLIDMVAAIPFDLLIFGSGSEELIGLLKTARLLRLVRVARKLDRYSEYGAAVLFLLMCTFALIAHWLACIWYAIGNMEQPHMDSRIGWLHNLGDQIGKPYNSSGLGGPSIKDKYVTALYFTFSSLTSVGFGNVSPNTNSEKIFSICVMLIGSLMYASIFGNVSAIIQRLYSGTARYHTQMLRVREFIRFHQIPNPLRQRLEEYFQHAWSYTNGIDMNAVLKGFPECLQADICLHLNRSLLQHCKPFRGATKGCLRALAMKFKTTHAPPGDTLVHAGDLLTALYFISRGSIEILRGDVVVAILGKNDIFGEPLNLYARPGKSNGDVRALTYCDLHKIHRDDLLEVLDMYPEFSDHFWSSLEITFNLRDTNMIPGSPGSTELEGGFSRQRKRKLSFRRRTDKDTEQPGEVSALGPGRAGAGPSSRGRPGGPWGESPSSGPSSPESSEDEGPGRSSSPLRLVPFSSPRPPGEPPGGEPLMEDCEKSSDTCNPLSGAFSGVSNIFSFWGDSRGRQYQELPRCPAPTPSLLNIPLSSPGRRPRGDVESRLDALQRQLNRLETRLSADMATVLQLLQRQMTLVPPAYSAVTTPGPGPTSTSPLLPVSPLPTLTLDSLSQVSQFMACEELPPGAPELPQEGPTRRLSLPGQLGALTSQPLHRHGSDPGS

Structure (SMILES)	hERG current change (%, negative = inhibition) at 1uM [%]
NNC(=O)c1[nH]c2ccccc2c1-c1ccccc1	21.8
Cc1c(Cl)cccc1NC(=O)N1CCCN(c2nc(-c3ccccc3)ns2)CC1	14.4
CC1=NN(C(N)=S)C(=O)C1N=Nc1ccc(C)cc1C (stereo not shown)	-4.82
COc1ccc(CCNC(=O)C2=CC=CN3CCS(=O)(=O)N=C23)cc1	-1.47
CN(Cc1cccc(F)c1)C(=O)c1ccc(S(=O)(=O)N2CCOCC2)cc1	9.45
CCc1noc(C)c1C(=O)N1CCN(S(=O)(=O)c2ccccc2C(F)(F)F)CC1	14.1
Cc1cccc(C)c1NC(=O)CCN1C(=O)C2C3CCC(C3)C2C1=O (stereo not shown)	3.55
Cc1ccc(S(=O)(=O)N2CCN(CC(=O)N/N=C/c3ccccc3OCC(=O)O)CC2)cc1	11.9
CCCS(=O)(=O)n1nc(-c2ccc(OC)cc2OC)cc1N	-0.602
COC(=O)CSc1nsc(SCC(=O)OC)c1C#N	11.3
COc1ccc(NC(=O)Cc2ccc(-c3ccccc3)cc2)cn1	-0.834
CC(=O)c1cccc(N(CC(=O)N2CCOCC2)S(C)(=O)=O)c1	9.93
C=CCn1c(Cc2csc(N)n2)nnc1SCc1ccc(C(=O)OC)cc1	1.97
C#Cc1ccc([C@@H]2C=C(C(=O)NCc3nc4ccccc4[nH]3)O[C@H](OCC)[C@H]2CCCO)cc1	-3.64
CCOC(=O)c1c(NC(=O)CCS(=O)(=O)c2ccccc2)sc2c1CC(C)(C)NC2(C)C	-14.1
CC1=C(C(=O)O)N2C(=O)C(NC(=O)c3ccc(F)cc3)C2SC1 (stereo not shown)	0.0849
CCNC(C(=O)c1c[nH]c2c(CC)cccc12)c1ccccc1 (stereo not shown)	20.3
Cc1nc(-n2ncc(C#N)c2N)c2c3c(sc2n1)CCC3	1.47
Cc1nc2ccc(S(=O)(=O)NCC(=O)N3CCCC(C)C3)cc2s1 (stereo not shown)	3.54
O=C1C2C(C(=O)N1/N=C/c1ccc(N3CCCCC3)o1)C1C=CC2C12CC2 (stereo not shown)	1.2
COc1ccc(-c2c(C#N)c(SCC(=O)Nc3ccccc3)nc3c2CCCC3)cc1	17.6
Cc1cccn2c(/C=N/OCc3cccc(F)c3)c(-c3ccc(Cl)cc3)nc12	11.1

Structure (SMILES)	hERG current change (%, negative = inhibition) at 1uM [%]
CCOP(=O)(c1ccc(N(C)C)cc1)C(O)c1ccc(Cl)cc1 (stereo not shown)	3.39
CC1(c2nnc(-c3ccc(Cl)cc3)o2)CC(c2cccnc2)=NO1 (stereo not shown)	-5.85
C[C@@H]1NS(=O)(=O)[C@H]2C[C@@H]3C=C[C@]2(O3)[C@H]1OC(=O)Nc1ccc(C(F)(F)F)cc1[N+](=O)[O-]	17.1
CCCCn1c(N)c(N(CCOC)C(=O)COC(=O)CSc2cc(C)c3ccccc3n2)c(=O)[nH]c1=O	5.83
Cc1ccc(C)c(CN2CCNC2=O)c1	-3.95
COc1cc(/C=C2\N=C(c3ccccc3)OC2=O)ccc1OC(C)=O	16.1
CCOc1ccc(C(=O)NCC(=O)OCc2c(F)cccc2Cl)cc1OCC	2.51
COc1ccc(-c2cc(C(=O)N3CCN(c4ncccn4)CC3)c3ccccc3n2)c(OC)c1	13.8
COc1ccc(CCC(=O)N2CCN(c3ccc([N+](=O)[O-])cc3)CC2)cc1OC	-76.1
CC(C)n1c(C(=O)OCC(=O)NCc2ccc3c(c2)OCO3)cc2occc21	6.07
O=C(CCC(=O)Nc1nnc(C2CCCCC2)s1)NCc1ccc(F)cc1	13.9
CCOc1cc(CNCc2cccnc2)ccc1OCC(=O)NC(C)(C)C.Cl	7.42
Cn1c(CCNC(=O)c2ccccc2F)nnc1SCc1nc2ccccc2c(=O)[nH]1	11.4
CC(C)CN(C(=O)C1CSC2(C)CCC(=O)N12)c1c(N)n(Cc2ccccc2)c(=O)[nH]c1=O (stereo not shown)	-3.96
CNC(=O)Nc1cccc(-c2cc(-c3c(Cl)cccc3Cl)no2)c1	16.3
COc1ccc(-c2cc(C(=O)Nc3c(Cl)cc(Cl)cc3Cl)c3ccccc3n2)cc1OC	4.23
Cn1c(Cn2c(=O)sc3ccccc32)nnc1SCC(=O)NCc1ccc(F)cc1	12.5
COc1ccc(OC)c(S(=O)(=O)N2CCC(C(=O)NCc3ccccn3)CC2)c1	15.1
CCc1ccc(NC(=O)CN(CC(=O)Nc2ccc(CC)cc2)CC(C)O)cc1 (stereo not shown)	22.6
Cc1ccc(S(=O)(=O)N(C)CC(=O)Nc2cccc3c2CCCC3)cc1	3.05
CCOC(=O)c1c(C)[nH]c(C)c1C(=O)COC(=O)c1ccc(Cl)c(S(N)(=O)=O)c1	5.74
O=C(Cn1c(-c2ccccc2)noc1=O)NCc1ccccc1	11.7

Structure (SMILES)	hERG current change (%, negative = inhibition) at 1uM [%]
COc1cccc(OCCOc2cccc(/C=N/n3cnnc3)c2)c1	8.1
O=c1cc(-c2ccccc2)[nH][nH]1	2.02
CO[C@H]1/C=C/O[C@@]2(C)Oc3c(C)c(O)c4c(O)c(c(C=NN5CCN(C)CC5)c(O)c4c3C2=O)NC(=O)/C(C)=C\C=C\[C@H](C)[C@H](O)[C@@H](C)[C@@H](O)[C@@H](C)[C@H](OC(C)=O)[C@@H]1C	9.29
COc1ccccc1CNS(=O)(=O)c1csc(C(N)=O)c1	17
Cc1cc(C)nc(SCC(=O)N2CCCCC2)n1	-0.525
O=C(NNC(=O)c1cc([N+](=O)[O-])ccc1Cl)c1cccs1	13
COCCN1CCN(C(=O)C2CCC(=O)N(CCCc3ccccc3)C2)CC1 (stereo not shown)	8.26
CC(C)CCNC(=O)CN(C(=O)CCC(=O)Nc1nccs1)c1ccc2c(c1)OCCO2	5.52
Cc1nc(-c2ccc(C(=O)Nc3cccc(Br)c3)cc2)cs1	3.25
Cn1c(O)c(/C=N/c2ncccn2)c(=O)n(C)c1=O	-3.57
CCN1CCN(C(=O)c2ccc(C)c(S(=O)(=O)Nc3cccc(C)c3)c2)CC1	-1.83
O=C(NNc1cccc(Cl)n1)Nc1cccc(Cl)c1	3.48
COc1ccc(/C=N/NC(=O)c2cccc(NC(=O)c3ccccc3Cl)c2)c(OC)c1	12.5
O=C(N/C(=C\c1ccccc1Cl)C(=O)N1CCOCC1)c1ccc([N+](=O)[O-])cc1	-31.6
COc1ccc(C(CC(=O)NCc2ccccc2)Sc2n[nH]c(-c3ccccc3)n2)cc1 (stereo not shown)	10.2
CSc1nnc2c3cc(F)ccc3n(C)c2n1	13.7
CC(=O)Oc1ccc2c(=O)c(-c3nc4ccccc4s3)coc2c1	10.9
C/C(=N\N(C)C)c1ccc(OCCOc2ccc([N+](=O)[O-])cc2)cc1	5.48
NC(=O)C1CCN(C(=S)NC2CC3C=CC2C3)CC1 (stereo not shown)	14.2
COc1ccc(N2CCN(C(=S)NCc3ccc(C)cc3)CC2)cc1	10.1
COc1ccc(C)cc1NC(=O)CN(C)C1CCCCC1	2.87
CCOc1ccccc1OCCCC(=O)N(C)CC(=O)Nc1cc(C)ccc1C	6.85

Structure (SMILES)	hERG current change (%, negative = inhibition) at 1uM [%]
O=CN1CCN(C(=O)Cc2ccc([N+](=O)[O-])cc2)CC1	7.36
CCCCSc1nn[nH]n1	10.1
C[C@H]1C(=O)N(C)CCN1C(=O)c1ccccc1OC1CCN(S(C)(=O)=O)CC1	8.87
COc1cccc(C2CC(c3cccs3)=NN2C(=O)CSC2=NCCS2)c1OC (stereo not shown)	-2.75
O=C(c1ccc(F)cc1)N1CCN(S(=O)(=O)c2ccc(Br)cc2)CC1	6.38
COc1ccc(NC(=O)c2ccc3c(=O)n4c(nc3c2)CCCCC4)cc1	-1.91
Cc1ccc(SCC(=O)O/N=C(\N)c2cccnc2)cc1	5.43
Cc1ccc(OC(=O)c2cccc(S(=O)(=O)N(C)C)c2)c(-n2nc3ccccc3n2)c1	4.39
C=C[C@@H]1c2ccccc2N(S(=O)(=O)c2ccc(C)cc2)[C@H](c2ccc(OC(C)=O)cc2)C1(C#N)C#N	20.1
CC1(NC(=S)Nc2ccc(NC(=S)NC3(C)CCS(=O)(=O)C3)cc2)CCS(=O)(=O)C1 (stereo not shown)	8.16
O=C(COc1ccccc1F)NC1CC1	4.15
Cc1c(Br)ccc(NC(=O)c2ccccc2[N+](=O)[O-])c1C	11.2
O=C(c1nc2ncccn2n1)N1CCc2ccccc2C1	0.39
COCc1nnc(NS(=O)(=O)c2ccc(C)cc2)s1	19.6
CCOC(=O)N1CCN(Cc2cc(=O)oc3ccc4ccccc4c23)CC1	13.8
CCn1c(N2CCN(S(=O)(=O)c3ccc(F)cc3)CC2)nc2ccccc21	-11.7
Cc1ccc(C2C=C(c3ccccc3)Nc3ncnn32)cc1 (stereo not shown)	-9.4
COc1ccc(NC(=O)CC2C(=O)N(CCc3ccccc3)C(=S)N2Cc2cccnc2)cc1 (stereo not shown)	-8.7
CN=C(Nc1ccc(C(=O)OC)s1)c1ccccc1	3
